# According to PubChem BioAssay AID493208 (National Center for Advancing Translational Sciences (NCATS), 2011):
# The whole screen tested about 44,000 compounds, of which about 340 (0.77%) were called active. Inconclusive results (about 5%) are left out. Calls follow the shape of the dose curve; as a rule, active = well fitted inhibition curve with a large enough effect; inconclusive = small, poorly fitted or top-dose-only effect; inactive = flat fitted curve, though single readings scatter. Some of the results follow.
# Assay: Acumen qHTS Assay for Inhibitors of the mTORC1 Signaling Pathway in MEF (Tsc2-/-, p53-/-) Cells: Sytravon; also: nearly all actives have a fitted effect of over 50% in size;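 as to activity change, negative = inhibition: plate controls were DMSO for no effect and rapamycin for full effect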
# Conditions: phospho-rpS6 immunofluorescence/PI, 24 h; series mostly up to 38.3 µM; activity change, negative = inhibition: at the top concentration
# Method in brief: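 Read-out: phospho-S6 Alexa-488 intensity over PI intensity per well, scored as % active cells using thresholds from rapamycin (7.5 nM) and DMSO controls. Tsc2-/-, p53-/- MEFs exposed to compound for 24 h; PI cell count recorded as viability.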
# Potency is read from the fitted curve at half-maximal effect.
SMILES,"activity change, negative = inhibition",Potency
Cc1nc2c3ccccc3nc(NNC(=O)CCC(=O)N3CCN(c4ccc(F)cc4)CC3)n2n1,inactive: 1.81%,–
CC(=O)N1CCCc2ccc(NC(=O)c3ccc(OC(C)C)cc3)cc21,inactive: 5.25%,–
Cc1ccc2nc(COc3ccccc3NC(=O)Nc3ccc(F)c(Cl)c3)cc(=O)n2c1,inactive: 7.53%,–
Cc1cccc(NC(=O)CSc2cn(CC(=O)N3CCOCC3)c3ccccc23)c1C,inactive: -8.3%,–
CCSc1nc(-c2ccc(OC)cc2)nc2c1Cc1c(CO)cnc(C)c1O2,inactive: -5.86%,–
Cc1ccc(-n2c3nc(=O)n(C)c(=O)c-3cc3ccccc32)c(C)c1,inactive: 2.66%,–
CCC(=O)N1CCc2cc(Br)cc(S(=O)(=O)N3CCCC(C(=O)NCc4ccc(C)cc4)C3)c21 (stereo not given),inactive: 3.09%,–
COc1ccc(S(=O)(=O)c2c(Nc3cccc(Cl)c3)sc(C(=O)c3ccccc3)c2N)cc1,inactive: 0.237%,–
COc1cccc2cc(-c3nc4sc5c(c4c(=O)[nH]3)CCC(C(C)(C)C)C5)c(=O)oc12 (stereo not given),inactive: -2.58%,–
COc1ccc(/C=C/c2nc(C#N)c(N3CCCCC3)o2)cc1OC,inactive: -5.02%,–
Cc1ccc2c(=O)cc(C(=O)Nc3c(C)cccc3C)oc2c1,inactive: 1.41%,–
CCc1ccc(NC(=O)Cn2ncn3c(cc4ccccc43)c2=O)cc1,inactive: -9.38%,–
CCCCN(Cc1cc2cc(C)ccc2[nH]c1=O)C(=O)c1cccc(Cl)c1,inactive: 0.862%,–
Cc1cc2c(cc1S(=O)(=O)NCc1ccc(F)cc1)OCCN2C,inactive: 0%,–
COc1ccccc1CNC(=O)C(C)n1c(=O)cc(-c2ccccc2)c2c(C)nn(C)c21 (stereo not given),inactive: -11.3%,–
CC(=O)Nc1ccc2nc3c(=O)n(C)c(=O)n(C)c3nc2c1C,inactive: -1.84%,–
CCOC(=O)Cn1c(=O)oc2cc(S(=O)(=O)N3CCN(c4cccc(C)c4)C(C)C3)ccc21 (stereo not given),inactive: -1.93%,–
Cc1nc2cccnc2n1-c1cccc(C(=O)NCCN(C)C)c1,inactive: -0.376%,–
CC(C)c1nn2c(=O)cc(COC(=O)c3cccs3)nc2s1,inactive: -14.7%,–
N#Cc1nc(-c2ccc(COc3ccccc3)o2)oc1N1CCN(c2ccccc2)CC1,inactive: -5.67%,–
CCc1ccc(CNC(=O)c2cnc3sc(N4CCOCC4)nn3c2=O)cc1,inactive: -9.35%,–
COc1ccc(Cl)cc1NC(=O)N1CCN(Cc2cc(=O)n3nc(-c4ccccc4)sc3n2)CC1,inactive: 14.8%,–
CCCS(=O)(=O)Nc1cccc(-c2cn3ccc(C)cc3n2)c1,inactive: -0.0726%,–
CCOc1ccc2c(c1)c(=O)c(S(=O)(=O)c1ccc(F)cc1)cn2CC(=O)Nc1ccccc1C,inactive: -10.7%,–

SMILES,"activity change, negative = inhibition",Potency
NC1=NC(c2cccc(Cl)c2)n2c(nc3ccccc32)N1 (stereo not given),inactive: -6.92%,–
CCOC(=O)c1cnn(-c2ccc(C(=O)Nc3ccc(C(C)=O)cc3)cc2)c1N,inactive: -8.27%,–
COc1cc2cc(CNc3ccccc3)c(=O)n(CC(=O)Nc3ccc(C)c(Cl)c3)c2cc1OC,inactive: -0.0537%,–
CCOC(=O)c1c(S(=O)(=O)N2CCCC(C(=O)NCc3cccc(C)c3)C2)c(C)n(C)c1C (stereo not given),inactive: 1.93%,–
COCCN(Cc1ccco1)C(=O)c1cc2c(=O)[nH]c3ccc(C)cc3c2s1,inactive: -1.31%,–
COc1ccc(C)cc1NS(=O)(=O)c1c(C(=O)N2CCC(C)CC2)c(C)n(C)c1C,inactive: 6.08%,–
COC(=O)c1ccc(NC(=O)CCCC(=O)OCC(=O)c2ccc(Cl)cc2)cc1,inactive: -10.3%,–
Cc1ccc(-c2noc(-c3ccc(N4CCN(C)CC4)c([N+](=O)[O-])c3)n2)cc1,inactive: 2.92%,–
O=C(COc1ccccc1)NCC(c1ccc(Cl)cc1)N1CCOCC1 (stereo not given),inactive: 1.32%,–
Cc1ccc(NC(=O)c2oc3ccc4c(c3c2C)C(=O)CC(C)(C)O4)c(C)c1,inactive: 5.55%,–
COc1ccc(CCNC(=O)c2cccc(Nc3nc4ccccc4nc3-n3nc(C)cc3C)c2)cc1OC,inactive: 2.6%,–
COc1ccc(C2C=C(c3ccc(Cl)cc3)Nc3nc(-c4ccc(Cl)cc4)nn32)cc1 (stereo not given),inactive: -9.58%,–
CCOc1c(Br)cc(C2CC(=O)Nc3cc4c(cc32)OCO4)cc1OC (stereo not given),–,active: 14.7 µM
Cc1ccccc1OCC(=O)NCC(c1ccc(Cl)cc1)N1CCCCC1 (stereo not given),inactive: -10.2%,–
Cn1ncc2c(N3CCN(c4ccccc4F)CC3)ncnc21,inactive: 4.06%,–
CCOc1ccc(/C=C/c2nc(C#N)c(NC(C)c3ccccc3)o2)cc1 (stereo not given),inactive: -2.76%,–
COc1ccc(C)cc1NC(=O)Nc1cccc(OCc2cc(=O)n3ccc(C)cc3n2)c1,inactive: 4.53%,–
CCOC(=O)c1ccc(-n2c(CCC(=O)O)ccc2-c2ccccc2)cc1,inactive: -14.3%,–
CC(=O)N1CCc2cc(Br)cc(S(=O)(=O)N3CCC(C(=O)Nc4ccc(C(C)C)cc4)CC3)c21,inactive: -5.84%,–
COc1cccc(C(=O)N2c3ncnn3C3(CCCCC3)[C@@H]3CCCC[C@@H]32)c1,inactive: -23.5%,–
COc1ccc(N2CCN(S(=O)(=O)c3ccc(-c4ccno4)cc3OC)CC2)cc1,inactive: -5.35%,–
CCCCc1ccc(NC(=O)c2ccc3c(c2)CCN3S(=O)(=O)CC)cc1,inactive: -4.62%,–
CN(Cc1ccccc1)S(=O)(=O)c1ccc(NC(=O)c2cc(=O)c3ccccc3o2)cc1,inactive: 4.02%,–
CCc1cccc(C)c1NC(=O)CN1C(=O)C2(SCC(=O)N2c2cccc(F)c2)c2ccccc21 (stereo not given),inactive: 4.83%,–

SMILES,"activity change, negative = inhibition",Potency
Cc1cccc(N2CCN(S(=O)(=O)c3cc(C(=O)Nc4ccc(Oc5ccccc5)cc4)ccc3F)CC2)c1C,inactive: 12.7%,–
O=c1oc2ccccc2c(N2CCN(c3ccc(F)cc3)CC2)c1CN1CCCC1,inactive: -29.8%,–
O=C(Cn1ncc2c([nH]c3ccccc32)c1=O)NCCCN1CCN(c2ccccc2)CC1,inactive: -8%,–
COc1ccc(C(=O)COC(=O)c2cc(-c3cccs3)nc3ccccc23)cc1,inactive: -19.5%,–
COc1ccc(OC)c(Nc2sc(C(=O)c3ccccc3)c(N)c2S(=O)(=O)c2ccccc2)c1,inactive: -8.87%,–
Cc1ccccc1NC(=O)Cn1c(=O)n(CCc2ccccc2)c(=O)c2ccccc21,inactive: 2.54%,–
CCc1nn2c(=O)cc(COC(=O)c3ccccc3NC(=O)COc3ccc(C)c(C)c3)nc2s1,inactive: 0%,–
COc1ccc(CNC(=O)C(C)n2nc(C)c3c(C)n(-c4ccccc4)nc3c2=O)c(OC)c1 (stereo not given),inactive: -3.7%,–
CC(C(=O)Nc1ccc(OC(F)(F)F)cc1)N1Cc2ccccc2C1=O (stereo not given),inactive: 1.88%,–
Cc1oc(-c2ccccc2F)nc1CN1CCC(C(=O)NCCc2ccccc2)CC1,inactive: 1.16%,–
CCCCn1cc(S(=O)(=O)c2cc(C)ccc2C)c(=O)c2cc(F)c(F)cc21,inactive: -1.58%,–
CCOC(=O)c1cccc(NC(=O)c2oc3c(c2C)-c2nn(CC)cc2CC3)c1,inactive: -15.3%,–
Cc1c(Cl)cccc1-n1ncc(C(=O)NC2CCCCC2)c1C1CCN(C(=O)OC(C)(C)C)CC1,inactive: 5.48%,–
COc1ccc(Br)cc1[C@@H]1Nc2ccc(C(=O)O)cc2[C@@H]2C=CC[C@@H]21,inactive: -3.14%,–
CCOc1ccc(CCNC(=O)CSc2nnnn2-c2ccccc2)cc1OCC,inactive: -2.37%,–
Cc1ccc(CNC(=O)Cc2csc3ccccc23)cc1,inactive: -2.76%,–
C#CCn1c(=O)n(-c2cccc(Cl)c2C)c(=O)c2c3c(sc21)CN(C(C)=O)CC3,inactive: 1.22%,–
CCOc1ccc(CNC(=O)Cn2nc(C)c3c(C)n(-c4ccc(C)cc4)nc3c2=O)cc1,inactive: 1.56%,–
CC(C)C(=O)Nc1nc2c(s1)CC(C(C)(C)C)CC2 (stereo not given),inactive: 0.924%,–
CC(=O)c1ccc(-n2c(CCC(=O)O)ccc2-c2cccs2)cc1,inactive: 8.73%,–
COc1ccc(-c2cnc(C)o2)cc1S(=O)(=O)Nc1ccc(OC(F)(F)F)cc1,inactive: 0.457%,–
Cc1ccc(C)c(CSc2nnc(C)n3c2cc2sccc23)c1,inactive: -5.65%,–
O=C(Cn1c(=O)nc(-c2ccccc2)c2ccccc21)N1CCN(c2ccc(F)cc2)CC1,inactive: 0%,–
COc1cc(OC)c(NC2=C(c3ccc(C(F)(F)F)cc3)C(=O)c3ccccc32)cc1Cl,inactive: 1.99%,–

SMILES,"activity change, negative = inhibition",Potency
O=C(CS(=O)(=O)c1cccc2nsnc12)NCc1ccccc1,inactive: -2.84%,–
COc1cc(NC(=O)C(Cc2ccccc2)NS(=O)(=O)c2cccs2)cc(OC)c1 (stereo not given),inactive: -4.21%,–
Cc1noc(/C=C/c2ccccc2F)c1S(=O)(=O)N1CCC(C(=O)NCC(C)c2ccccc2)CC1 (stereo not given),inactive: 2.08%,–
CC(C)Oc1ccccc1NC(=O)CSc1nccn1C,inactive: 6.13%,–
OCCCn1c(-c2ccc(F)cc2)csc1=Nc1ccc(F)cc1,inactive: -4.01%,–
Cc1ccc(-n2c(=O)c3c(c4cc(C)ccc4n3C)n(CC(=O)c3ccc(Cl)cc3)c2=O)cc1,inactive: -6.79%,–
O=C(O)CSc1nc2ccc(NC(=O)COc3ccc(Cl)cc3)cc2s1,inactive: -10.1%,–
COC(=O)c1ccc(NC(=O)CSc2nnc3c4ccccc4n(C(C)C)c3n2)cc1,inactive: -0.949%,–
Cc1ccc(NC(=O)c2ccc(CN3CC(=O)N4CCCCC4C3=O)cc2)c(C)c1 (stereo not given),inactive: -16%,–
Cc1ccc2c(=O)c(C(=O)c3ccc(F)cc3)cn(CC(=O)Nc3ccc4c(c3)OCCO4)c2n1,inactive: 4.8%,–
COC(=O)c1ccccc1NC(=O)c1nc(-c2ccc(Cl)cc2)n2c1CCCCC2,inactive: -1.9%,–
CCOc1cccc(C(=O)Nc2cc(C)c(O)c(-c3nc4ncccc4o3)c2)c1,inactive: 5.35%,–
COc1ccc(CNC(=O)CC(c2ccc(OC)cc2)N2Cc3ccccc3C2=O)cc1 (stereo not given),inactive: -3.82%,–
CCOC(=O)c1c(NC(=O)c2cc(=O)c3cc(C)cc(C)c3o2)sc(C)c1C,inactive: -2.25%,–
O=C(CSc1nccn1C1CCCC1)Nc1cc(C(F)(F)F)ccc1Cl,inactive: -20.2%,–
Cc1ccc(-c2nn(CC(=O)NCc3ccccc3)c3c2cnc2ccc(F)cc23)cc1C,inactive: 0.278%,–
CCCNC(=O)CN1C(=O)COc2ccc(S(=O)(=O)N3CCC(C)CC3)cc21,inactive: -10.3%,–
COc1ccc(OC)c(-n2c3c(cc(-c4nc(-c5ccc(Cl)cc5)cs4)c2=O)C(=O)CC(C)(C)C3)c1,inactive: -2.4%,–
O=C(c1ccc2c(c1)N(Cc1ccccc1)C(=O)c1ccccc1S2(=O)=O)N1CCc2ccccc21,inactive: -8.42%,–
Cc1c(NC(=O)C(C)(C)Oc2ccc(Cl)cc2)cccc1-c1nc2ccccc2o1,inactive: 0.705%,–
COc1ccccc1CNC(=O)CSc1ccc(-c2sc(-c3ccccc3)nc2C)nn1,inactive: 1.55%,–
CCOc1ccc(OCC)c(NC(=O)c2cc3ccccn3n2)c1,inactive: 1.3%,–
CCC(=O)N1CCc2cc(S(=O)(=O)NC(Cc3ccccc3)C(=O)Nc3ccccc3C)ccc21 (stereo not given),inactive: 0.136%,–
